# Data reported in PubChem BioAssay AID1347073 (National Center for Advancing Translational Sciences (NCATS), 2019).
# The campaign covered roughly 45,000 compounds. About 200 (0.44%) were called active. About 7% were inconclusive and are not listed. The call rests on the fitted dose curve; in most records, active means well fitted activation curve with a large enough effect; inconclusive means small, poorly fitted or top-dose-only effect; inactive means no such curve, though single readings can be large or run the other way. This is one part of the list.
# Assay: qHTS of TDP-43 Inhibitors: NCGC Sytravon Library Screen; further: 0% is about no effect; nearly all actives have a fitted effect of over 55% in size
# Details: yeast TDP-43 toxicity rescue, BacTiter-Glo growth, 24 h; series mostly up to 46.1 µM; growth rescue (activation): at the top concentration
# Procedure, shortened: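 TDP-43-expressing yeast, pregrown in raffinose, seeded at OD600 0.02 in galactose medium with compound for 24 hr at 30 deg C. Growth read by BacTiter-Glo luminescence, so rescue of toxicity appears as activation.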
row,SMILES,growth rescue (activation)
1,COC(=O)c1cn(Cc2ccccn2)c(=O)c2ccccc12,inactive: 7.67%
2,COc1cc(NC(=O)COC(=O)/C=C/c2ccc(Cl)cc2Cl)cc(OC)c1,inactive: 12.4%
3,O=C(NCc1ccncc1)C(=O)Nc1nccs1,inactive: 14.5%
4,CCN(CC(=O)Nc1ccc(S(=O)(=O)N2CCCC2)cc1)CC(=O)Nc1cccc(OC)c1,inactive: 2.59%
5,CC(=O)c1c(C)[nH]c(C(=O)CSc2nnc(-c3ccco3)o2)c1C,inactive: -5.75%
6,COc1cc(NS(C)(=O)=O)cc(OC)c1OC,inactive: 3.49%
7,CCc1ccc([C@@H]2C[C@H]3CN(Cc4ccccc4OC)C(=O)[C@]34CCCN24)cc1,inactive: 12.3%
8,Cc1c(C(=O)OCC(=O)N2CCN(c3ccccc3)CC2)oc2ccccc12,inactive: 22.1%
9,Cc1ccc(/C=N/Nc2nnc(Cl)c3ccccc23)cc1,inactive: -3.07%
10,CCOC(=O)C1CCCN(CCC(=O)Nc2ccc(C)c(C)c2)C1 (stereo not drawn),inactive: 11.9%
11,CC(OC(=O)CN1C(=O)C2C3C=CC(C4CC34)C2C1=O)C(=O)c1ccccc1 (stereo not drawn),inactive: -2.7%
12,O=S(=O)(c1ccccc1)c1nc(-c2ccc(Cl)cc2)oc1NCCCN1CCOCC1,inactive: 16.9%
13,CCOc1ccc(C(=O)c2cc([N+](=O)[O-])ccc2N2CCOCC2)cc1,inactive: 4.01%
14,Cc1ccccc1NC(=S)NCCc1c[nH]c2ccccc12,inactive: 10.7%
15,CC(C(=O)c1c[nH]c(C(=O)N=CN(C)C)c1)c1ncc(C(F)(F)F)cc1Cl (stereo not drawn),inactive: 12.7%
16,Cc1cc(S(=O)(=O)N2CCN(c3ccc(F)cc3)CC2)ccc1-n1cnnn1,inactive: 7.11%
17,Cc1ccc(NC(=O)N2CCCC2C(=O)NCc2ccc3c(c2)OCO3)cc1 (stereo not drawn),inactive: 7.53%
18,COc1ccc(C(=O)Nc2cc(C(=O)O)cc(C(=O)O)c2)cc1Cl,inactive: -5.95%
19,Cc1nc2sc(-c3ccccc3)cc2c(=O)n1/N=C/N(C)C,inactive: -4.41%
20,CN(Cc1ccccc1)C(=O)Cn1nnc(-c2ccccc2)c1COc1ccccc1,inactive: 20.5%
21,CCOC(=O)c1c(C)n(C)c2cc(-c3ccc(F)cc3)c(O)cc12,inactive: 8.17%
22,Cn1c(SCC(=O)Nc2ccc(Br)cc2)nc(O)cc1=O,inactive: 3.49%
23,Cc1ccc([N+](=O)[O-])cc1NC(=O)CSc1n[nH]c(-c2cccnc2)n1,inactive: -4.03%

row,SMILES,growth rescue (activation)
1,CCc1ccc(Cn2ncc3c(C(=O)O)cc(C)nc32)cc1,inactive: 14%
2,CC(=O)N1CCN(c2ccc(S(=O)(=O)N3CCCCC3)cc2[N+](=O)[O-])CC1,inactive: 2.41%
3,Cc1ccc(C(C)C)c(OCC(=O)NN=C2CCCCCCC2)c1,inactive: 17%
4,N#Cc1ccccc1OCC(=O)OCC(=O)N1CCCC1,inactive: 0.653%
5,Cc1noc(C)c1-c1ccc(C(=O)NCC(C)C)c2occc12,inactive: 11.1%
6,Cc1c(C(=O)c2ccc(F)cc2F)c2ccccn2c1CCC#N,inactive: 11.8%
7,O=C(COC(=O)c1cccs1)Nc1ccccc1Cl,inactive: -6.28%
8,Cc1ccc2c(c1)N(CC(=O)NCCCN1CCCCC1)C(=O)CO2,inactive: 8.87%
9,CSCCC(NS(=O)(=O)c1ccc(Cl)cc1)C(=O)OCC(=O)N1CCCc2ccccc21 (stereo not drawn),inactive: -4.98%
10,CCCCC(=O)Nc1cc(OCC)c(NC(=S)NC)cc1OCC,inactive: -1.36%
11,CC(C)NS(=O)(=O)c1ccc(OCC(=O)NC(C)c2ccccc2)cc1 (stereo not drawn),inactive: 0.0514%
12,CC1(C)CC(=O)C=C(Nc2ccc(Cl)cc2)C1,inactive: -1.04%
13,O=C(CN1C(=O)c2ccccc2S1(=O)=O)Nc1cc(S(=O)(=O)N2CCCCC2)ccc1Cl,inactive: 20%
14,Cc1ccc(CSc2nc3nc(C)cc(C)c3c(=O)[nH]2)cc1,inactive: 10.5%
15,CCN(c1ccccc1)C1(O)C(=O)c2ccccc2C1=O,inactive: 8.86%
16,COc1ccc(Br)cc1S(=O)(=O)NCCN1CCOCC1,inactive: 1.63%
17,COc1cc(CN(C)C(C)C(=O)Nc2ccc([N+](=O)[O-])cc2Cl)ccc1OC(F)F (stereo not drawn),inactive: -5.67%
18,CN(C)c1cccc(C(=O)OCC(=O)N(C)c2ccccc2)c1,inactive: 4.56%
19,CSc1ncccc1C(=O)OCC(=O)NC1CC1,inactive: 21.1%
20,COc1ccc(N(C(=O)c2snc(C(N)=O)c2N)C(CC(C)C)C(=O)NCC2CCCO2)cc1 (stereo not drawn),inactive: 4.09%
21,COc1ccc(NS(=O)(=O)c2cc(NC(=O)CNC(=O)c3cccc(OC)c3)ccc2C)cc1,inactive: 17.1%
22,CS(=O)(=O)N(CC(=O)Nc1ccc(F)c(F)c1)c1cccc([N+](=O)[O-])c1,inactive: 25.6%
23,CC(=O)Nc1ccc(NC(=O)COC(=O)CCc2nc3ccccc3s2)cc1,inactive: 19.5%

row,SMILES,growth rescue (activation)
1,CCC(OC(=O)CN1C(=O)C(=O)c2ccccc21)C(=O)Nc1ccccc1OC (stereo not drawn),inactive: -0.466%
2,O=S1(=O)CC(NCc2ccccc2)C(Nc2ccc(Cl)cc2)C1 (stereo not drawn),inactive: 20.7%
3,COc1ccc(N2CCN(C(=O)C3(S(=O)(=O)c4ccc(C)cc4)CC3)CC2)cc1,inactive: 5.37%
4,CCOC(=O)c1c(NC(=O)COC(=O)c2ccccn2)sc2c1CCC2,inactive: 28.3%
5,CCN(CC)S(=O)(=O)c1ccc(N/N=C/c2ccc(O)cc2O)nc1,inactive: -24.9%
6,Brc1ccccc1C1=Nn2c(nnc2-c2ccco2)SC1,inactive: 7.23%
7,COc1ccc(C(=O)NC(=S)Nc2ccc(S(=O)(=O)Nc3cc(OC)ncn3)cc2)cc1,inactive: -23.3%
8,CCC(c1nnnn1Cc1ccc2c(c1)OCO2)N1CCN(c2ccc(F)cc2)CC1 (stereo not drawn),inactive: 26.1%
9,CC1(C)SC(=S)N(/N=C/c2ccccc2O)C1N(O)C(=O)Nc1ccccc1 (stereo not drawn),inactive: 9.7%
10,CC1(c2ccccc2)NC(=O)N(CC(=O)NCc2ccc3c(c2)OCO3)C1=O (stereo not drawn),inactive: -3.58%
11,Cc1cc(C(=O)N(C)Cc2c(F)cccc2Cl)c2ccccc2n1,inactive: 4.46%
12,CCSCc1nnc(SCC(=O)c2ccc(OC)cc2)n1C,inactive: 3.12%
13,CC(C)(C)n1nnnc1C(c1ccc(F)cc1)N1CCC(C(N)=O)CC1 (stereo not drawn),inactive: -4.46%
14,O=c1[nH]cnc2sc3c(c12)CCCCC3,inactive: 20.5%
15,COc1ccc(NC(=O)CSc2nnnn2C2CCCC2)cc1,inactive: 7.17%
16,N#CCCn1cc(C(=O)NCc2ccccc2)c(-c2cccs2)n1,inactive: 16%
17,CCCC(=O)NC(=S)Nc1cccc(NC(=O)c2ccccc2)c1,inactive: 12.7%
18,COc1ccc(Nc2nc(C)nc3sc4c(c23)CCC4)cc1O,inactive: 7.45%
19,CCOC(=O)c1oc2ccc3c(c2c1C)C(=O)CC1(CCN(C(=O)OCC)CC1)O3,inactive: 22.4%
20,CCN(CC)S(=O)(=O)c1cccc(C(=O)OCC(=O)Nc2ccc3c(c2)c2ccccc2n3CC)c1,inactive: -18.3%
21,CCn1c(SCC(=O)NCc2ccccc2)nnc1-c1cccnc1,inactive: -5.14%
22,COCCNC(=O)C(c1ccc(Cl)cc1)N(CCOC)C(=O)CCC(=O)Nc1ccccn1 (stereo not drawn),inactive: -0.306%
